Key:
human IL-15 [1] = biological target: T1, human IL-15 (human, UniProt P40933 fragment); assay: SPR, variant captured on anti-human Fc, IL-15 analyte, single-cycle kinetics, 1:1 fit
T1 construct: also called Premium grade IL-15; GMP grade human IL-15
Method: (§1) EDC: 1-ethyl-3-(3-dimethylaminopropyl) carbodiimide hydrochloride; NHS: N-Hydroxysuccinimide; SPR: surface plasmon resonance; EDTA: ethylenediaminetetraacetic acid SPR Supplies Series S Sensor Chip CM5, Biacore amine coupling kit (NHS, EDC and 1 M ethanolamine), and 10 mM sodium acetate buffers were purchased from Cytiva Life Sciences (Marlborough, MA). […] PBS running buffer with 1% Tween20 (PBST) was purchased from Teknova Inc. (Hollister, Calif.). Goat polyclonal anti-human Fc antibody was purchased from Jackson Immuno Research Laboratories Inc. (West Grove, Pa.). EDTA was purchased from Bioshop (Burlington, ON). All SPR assays were carried out using a Biacore T200 Surface Plasmon Resonance instrument (Cytiva Life Sciences, (Marlborough, MA)) with PBST running buffer (with 0.5 M EDTA stock solution added to 3.4 mM final concentration) at a temperature of 25° C. The anti-human Fc capture surface was generated using a Series S Sensor Chip CM5 using the default parameters under the Immobilization Wizard in the Biacore T200 control software which was set to target 3000 resonance units (RUs).
The first flow cell was left empty to use as a blank control. […] The captured antibody surfaces were regenerated twice by 10 mM Glycine pH1.5 for 30 seconds at 30 μL/min. Buffer injections were performed for each analyte injection to be used for referencing.

human PD-1 [2] = biological target: T2, human PD-1 (human, UniProt Q15116 fragment, limits assumed); assay: SPR, variant as analyte over immobilised PD1 (avidity possible)
T2 construct: Recombinant protein used in SPR as analyte or amine-coupled ligand; also called PD1 antigen

human PD-1 [3] = biological target: T2, human PD-1; assay: SPR, variant captured on protein A, PD1 analyte (impaired accessibility on chip noted)
T2 sequence (Q15116 25-167 limits assumed): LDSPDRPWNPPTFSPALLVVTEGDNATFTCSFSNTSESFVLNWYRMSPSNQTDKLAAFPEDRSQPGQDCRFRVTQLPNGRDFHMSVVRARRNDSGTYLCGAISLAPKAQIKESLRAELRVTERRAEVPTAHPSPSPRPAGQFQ
Method: as §1, with “The anti-human Fc capture surface was generated using a Series S Sensor Chip CM5 using the default parameters under the Immobilization Wizard in the Biacore T200 control software which was set to target 3000 resonance units (RUs).” left out
The first flow cell was left empty to use as a blank control. […] Buffer injections were performed for each analyte injection to be used for referencing.

human PD-1 [4] = biological target: T2, human PD-1; assay: SPR, variant (additional production) captured on anti-human Fc, PD1 analyte
human IL-15 [5] = biological target: T1, human IL-15; assay: SPR, variant (additional production) captured on anti-human Fc, IL-15 analyte, single-cycle kinetics, 1:1 fit
T1 sequence (P40933 49-162 limits assumed): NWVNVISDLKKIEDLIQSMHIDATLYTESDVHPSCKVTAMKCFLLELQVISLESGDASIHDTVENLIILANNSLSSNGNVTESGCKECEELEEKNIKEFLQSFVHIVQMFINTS

human IL-15 [6] = biological target: T1, human IL-15; assay: SPR, variant (additional production) captured on immobilised PD1, IL-15 analyte, single-cycle kinetics, 1:1 fit
human IL-15 [7] = biological target: T1, human IL-15; assay: SPR, variant captured on immobilised PD1, IL-15 analyte, single-cycle kinetics, 1:1 fit

B1: RV17 (bispecific antibody, human IgG1, lambda)
heavy: QVQLVQSGAEVKKPGASVKVSCKASGYSFSSFGISWVRQAPGQGLEWLGWISAFNGYTKYAQKFQDRVTMTTDTSTSTAYMELRSLRSDDTAVYYCARDPAAWPLQQSLAWFDPWGQGTMVTVSSASTKGPSVFPLAPSSKSTSGGTAALGCLVKDYFPEPVTVSWNSGALTSGVHTFPAVLQSSGLYSLSSVVTVPSSSLGTQTYICNVNHKPSNTKVDKKV[sequence of human IgG1 Fc with changes not given]GGGGSGGGGSGGGGSGGGGSQVQLVQSGVEVKKPGASVKVSCKASGYTFTNYYMYWVRQAPGQGLEWMGGINPSNGGTNFNEKFKNRVTLTTDSSTTTAYMELKSLQFDDTAVYYCARRDYRFDMGFDYWGQGTTVTVSSGGSGGGSGGGSGGGSGGGSGEIVLTQSPATLSLSPGERATLSCRASKGVSTSGYSYLHWYQQKPGQAPRLLIYLASYLESGVPARFSGSGSGTDFTLTISSLEPEDFAVYYCQHSRDLPLTFGGGTKVEI
light: QSVLTQPPSASGTPGQRVTISCSGSTSNLKRNYVYWYQQLPGTAPKLLIYRDRRRPSGVPDRFSGSKSGTSASLAISGLRSEDEADYYCAWYDRELSEWVFGGGTKLTVLQPKAAPSVTLFPPSSEELQANKATLVCLISDFYPGAVTVAWKADSSPVKAGVETTTPSKQSNNKYAASSYLSLTPEQWKSHRSYSCQVTHEGSTVEKTVAPTECS
notes: Purity 66.9 % main peak
Q: With B1 as the binder, how does the Kd (human IL-15 [1]) read?
A: 0.106 nM

B2: RV19 (bispecific antibody, human IgG1, lambda)
heavy: QVQLVQSGAEVKKPGASVKVSCKASGYSFSSFGISWVRQAPGQGLEWLGWISAFNGYTKYAQKFQDRVTMTTDTSTSTAYMELRSLRSDDTAVYYCARDPAAWPLQQSLAWFDPWGQGTMVTVSSASTKGPSVFPLAPSSKSTSGGTAALGCLVKDYFPEPVTVSWNSGALTSGVHTFPAVLQSSGLYSLSSVVTVPSSSLGTQTYICNVNHKPSNTKVDKKV[sequence of human IgG1 Fc with changes not given]GGGGSGGGGSGGGGSGGGGSQVQLVQSGVEVKKPGASVKVSCKASGYTFTNYYMYWVRQAPGQCLEWMGGINPSNGGTNFNEKFKNRVTLTTDSSTTTAYMELKSLQFDDTAVYYCARRDYRFDMGFDYWGQGTTVTVSSGGSGGGSGGGSGGGSGGGSGEIVLTQSPATLSLSPGERATLSCRASKGVSTSGYSYLHWYQQKPGQAPRLLIYLASYLESGVPARFSGSGSGTDFTLTISSLEPEDFAVYYCQHSRDLPLTFGCGTKVEI
light: QSVLTQPPSASGTPGQRVTISCSGSTSNLKRNYVYWYQQLPGTAPKLLIYRDRRRPSGVPDRFSGSKSGTSASLAISGLRSEDEADYYCAWYDRELSEWVFGGGTKLTVLQPKAAPSVTLFPPSSEELQANKATLVCLISDFYPGAVTVAWKADSSPVKAGVETTTPSKQSNNKYAASSYLSLTPEQWKSHRSYSCQVTHEGSTVEKTVAPTECS
notes: Purity 85.6 % main peak
Q: B2 was tested. Which Kd (human IL-15 [1]) did it give?
A: 0.0847 nM

B3: RV18 (bispecific antibody, human IgG1, lambda)
heavy: QVQLVQSGAEVKKPGASVKVSCKASGYSFSSFGISWVRQAPGQGLEWLGWISAFNGYTKYAQKFQDRVTMTTDTSTSTAYMELRSLRSDDTAVYYCARDPAAWPLQQSLAWFDPWGQGTMVTVSSASTKGPSVFPLAPSSKSTSGGTAALGCLVKDYFPEPVTVSWNSGALTSGVHTFPAVLQSSGLYSLSSVVTVPSSSLGTQTYICNVNHKPSNTKVDKKV[sequence of human IgG1 Fc with changes not given]GGGGSGGGGSGGGGSGGGGSEIVLTQSPATLSLSPGERATLSCRASKGVSTSGYSYLHWYQQKPGQAPRLLIYLASYLESGVPARFSGSGSGTDFTLTISSLEPEDFAVYYCQHSRDLPLTFGGGTKVEIKGGSGGGSGGGSGGGSGGGSGQVQLVQSGVEVKKPGASVKVSCKASGYTFTNYYMYWVRQAPGQGLEWMGGINPSNGGTNFNEKFKNRVTLTTDSSTTTAYMELKSLQFDDTAVYYCARRDYRFDMGFDYWGQGTTVTVSS
light: QSVLTQPPSASGTPGQRVTISCSGSTSNLKRNYVYWYQQLPGTAPKLLIYRDRRRPSGVPDRFSGSKSGTSASLAISGLRSEDEADYYCAWYDRELSEWVFGGGTKLTVLQPKAAPSVTLFPPSSEELQANKATLVCLISDFYPGAVTVAWKADSSPVKAGVETTTPSKQSNNKYAASSYLSLTPEQWKSHRSYSCQVTHEGSTVEKTVAPTECS
notes: IgG1 LALAPG anti-IL-15 antibody with anti-PD1 scFv fused to the heavy chain C terminus; Purity 20.8 % main peak
Q: B3 was tested. Which Kd (human PD-1 [2]) did it give?
A: 0.215 nM

Q: What about the Kd (human IL-15 [1]) of the same binder?
A: 0.0769 nM

Q: And the Kd (human PD-1 [3])?
A: 13 nM

B4: RV20 (bispecific antibody, human IgG1, lambda)
heavy: QVQLVQSGAEVKKPGASVKVSCKASGYSFSSFGISWVRQAPGQGLEWLGWISAFNGYTKYAQKFQDRVTMTTDTSTSTAYMELRSLRSDDTAVYYCARDPAAWPLQQSLAWFDPWGQGTMVTVSSASTKGPSVFPLAPSSKSTSGGTAALGCLVKDYFPEPVTVSWNSGALTSGVHTFPAVLQSSGLYSLSSVVTVPSSSLGTQTYICNVNHKPSNTKVDKKV[sequence of human IgG1 Fc with changes not given]GGGGSGGGGSGGGGSGGGGSEIVLTQSPATLSLSPGERATLSCRASKGVSTSGYSYLHWYQQKPGQAPRLLIYLASYLESGVPARFSGSGSGTDFTLTISSLEPEDFAVYYCQHSRDLPLTFGCGTKVEIKGGSGGGSGGGSGGGSGGGSGQVQLVQSGVEVKKPGASVKVSCKASGYTFTNYYMYWVRQAPGQCLEWMGGINPSNGGTNFNEKFKNRVTLTTDSSTTTAYMELKSLQFDDTAVYYCARRDYRFDMGFDYWGQGTTVTVSS
light: QSVLTQPPSASGTPGQRVTISCSGSTSNLKRNYVYWYQQLPGTAPKLLIYRDRRRPSGVPDRFSGSKSGTSASLAISGLRSEDEADYYCAWYDRELSEWVFGGGTKLTVLQPKAAPSVTLFPPSSEELQANKATLVCLISDFYPGAVTVAWKADSSPVKAGVETTTPSKQSNNKYAASSYLSLTPEQWKSHRSYSCQVTHEGSTVEKTVAPTECS
notes: IgG1 LALAPG; Two productions tested: RV20 (57.7 % main peak) and RV20* (96.5 %); also called RV20* (additional production)
Q: How did the Kd (human PD-1 [2]) turn out when B4 was run?
A: 17.2 nM

Q: And the Kd (human PD-1 [4])?
A: 3.99 nM

Q: And the Kd (human IL-15 [1])?
A: 0.0519 nM

Q: What about the Kd (human PD-1 [3]) of the same binder?
A: 269 nM

Q: What about the Kd (human IL-15 [5]) of the same binder?
A: 0.0531 nM

Q: And the Kd (human IL-15 [6])?
A: 0.169 nM

B5: RV30 (bispecific antibody, human IgG1, lambda)
heavy: QVQLVQSGVEVKKPGASVKVSCKASGYTFTNYYMYWVRQAPGQGLEWMGGINPSNGGTNFNEKFKNRVTLTTDSSTTTAYMELKSLQFDDTAVYYCARRDYRFDMGFDYWGQGTTVTVSSGGGGSGGGGSQVQLVQSGAEVKKPGASVKVSCKASGYSFSSFGISWVRQAPGQGLEWLGWISAFNGYTKYAQKFQDRVTMTTDTSTSTAYMELRSLRSDDTAVYYCARDPAAWPLQQSLAWFDPWGQGTMVTVSSASTKGPSVFPLAPSSKSTSGGTAALGCLVKDYFPEPVTVSWNSGALTSGVHTFPAVLQSSGLYSLSSVVTVPSSSLGTQTYICNVNHKPSNTKVDKKV[sequence of human IgG1 Fc with changes not given]
light: EIVLTQSPATLSLSPGERATLSCRASKGVSTSGYSYLHWYQQKPGQAPRLLIYLASYLESGVPARFSGSGSGTDFTLTISSLEPEDFAVYYCQHSRDLPLTFGGGTKVEIKGGGGSGGGGSQSVLTQPPSASGTPGQRVTISCSGSTSNLKRNYVYWYQQLPGTAPKLLIYRDRRRPSGVPDRFSGSKSGTSASLAISGLRSEDEADYYCAWYDRELSEWVFGGGTKLTVLQPKAAPSVTLFPPSSEELQANKATLVCLISDFYPGAVTVAWKADSSPVKAGVETTTPSKQSNNKYAASSYLSLTPEQWKSHRSYSCQVTHEGSTVEKTVAPTECS
notes: Dual variable domain format, IgG1 LALAPG; Two productions tested: RV30 (88.2 % main peak) and RV30* (97.4 %); also called RV30* (additional production)
Q: How did the Kd (human IL-15 [1]) turn out when B5 was run?
A: 0.077 nM

Q: What about the Kd (human IL-15 [7]) of the same binder?
A: 0.452 nM

Q: And the Kd (human IL-15 [5])?
A: 0.0664 nM

Q: What about the Kd (human IL-15 [6]) of the same binder?
A: 0.85 nM

B6: RV37 (bispecific antibody, human IgG1, lambda)
heavy: QVQLVQSGVEVKKPGASVKVSCKASGYTFTNYYMYWVRQAPGQGLEWMGGINPSNGGTNFNEKFKNRVTLTTDSSTTTAYMELKSLQFDDTAVYYCARRDYRFDMGFDYWGQGTTVTVSSGGGGSGGGGSGGGGSGGGGSQVQLVQSGAEVKKPGASVKVSCKASGYSFSSFGISWVRQAPGQGLEWLGWISAFNGYTKYAQKFQDRVTMTTDTSTSTAYMELRSLRSDDTAVYYCARDPAAWPLQQSLAWFDPWGQGTMVTVSSASTKGPSVFPLAPSSKSTSGGTAALGCLVKDYFPEPVTVSWNSGALTSGVHTFPAVLQSSGLYSLSSVVTVPSSSLGTQTYICNVNHKPSNTKVDKKV[sequence of human IgG1 Fc with changes not given]
light: EIVLTQSPATLSLSPGERATLSCRASKGVSTSGYSYLHWYQQKPGQAPRLLIYLASYLESGVPARFSGSGSGTDFTLTISSLEPEDFAVYYCQHSRDLPLTFGGGTKVEIKGGGGSGGGGSGGGGSGGGGSQSVLTQPPSASGTPGQRVTISCSGSTSNLKRNYVYWYQQLPGTAPKLLIYRDRRRPSGVPDRFSGSKSGTSASLAISGLRSEDEADYYCAWYDRELSEWVFGGGTKLTVLQPKAAPSVTLFPPSSEELQANKATLVCLISDFYPGAVTVAWKADSSPVKAGVETTTPSKQSNNKYAASSYLSLTPEQWKSHRSYSCQVTHEGSTVEKTVAPTECS
notes: Dual variable domain format, IgG1 LALAPG; Purity 71.4 % main peak
Q: How did the Kd (human IL-15 [1]) turn out when B6 was run?
A: 0.0664 nM

Q: What about the Kd (human IL-15 [7]) of the same binder?
A: 0.227 nM

Reference: US12692305 (REVERB THERAPEUTICS, dated 2026)
